{"source": "the supplement of paper PMC11417369", "note": "The list shows a part of the results.", "data": [{"system": "PfHDP1 homeodomain (GST-tagged)", "assay": "gcPBM binding intensity (ln(normalized median fluorescence intensity)); higher = stronger DNA binding", "procedure,_shortened": "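Each value is the highest Masliner-normalised natural-log median intensity across replicate spots of either orientation of a probe. The probes were primer-extended double-stranded 36-bp intergenic genomic sequences on an Agilent 4 × 180k array, alongside negative controls, exposed for 1 h to GST-tagged P. falciparum DNA-binding domains expressed in E. coli. Bound protein was picked up with Alexa488 anti-GST antibody and scanned at 488 nm.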", "values": [{"sequence": "CATTTTAAAGAAAATACACACAAAAATAAATATATA [CACACA_site1395]", "gcPBM binding intensity (ln)": 6.6}, {"sequence": "TTTTTTTATTAAAAATGTACAAAAATGAAAAAATAA [XGTACX_site8279]", "gcPBM binding intensity (ln)": 6.62}, {"sequence": "CATATAATTTTATGGGTGCATTTTTTTGTAAGACCA", "gcPBM binding intensity (ln)": 8.63}, {"sequence": "TAAAAAAATATATATACATGCATAGAAAAAAAAAAA [TGCATGCA_site552]", "gcPBM binding intensity (ln)": 6.5}, {"sequence": "TAATAATAAATTGGTTGTACAACCTTATACAGAATA [XGTACX_site2592]", "gcPBM binding intensity (ln)": 6.58}, {"sequence": "ACACAAAAAATAAAAATATATATATATTATATATAT [CACACA_negctrl_site1489]", "gcPBM binding intensity (ln)": 7.32}, {"sequence": "TTTATACACAAAAAATGTACATATATATAATGAATT [XGTACX_site1195]", "gcPBM binding intensity (ln)": 6.78}, {"sequence": "CGTTTATATAGTGATGCATGCATTGTTAACATGGTT [TGCATGCA_site418]", "gcPBM binding intensity (ln)": 7.1}, {"sequence": "CGCACAAAAATATACACACACACATATATATTTATT [CACACA_site3645]", "gcPBM binding intensity (ln)": 7.33}, {"sequence": "TGTATGTCTTTATTTTGTACACAATATAAAAAATTA [XGTACX_site5441]", "gcPBM binding intensity (ln)": 6.69}, {"sequence": "TATATTTACGTATGTCGAACGTTATTTTGAACAACC [CACACA_negctrl_site1261]", "gcPBM binding intensity (ln)": 6.44}, {"sequence": "TTAAAAAAAAAAAGGTGTACTATAATTTAATATCAC [XGTACX_site6316]", "gcPBM binding intensity (ln)": 6.2}, {"sequence": "TTTAATTTTTTTTAAACACACACATTACATTCAAAA [CACACA_site7926]", "gcPBM binding intensity (ln)": 6.53}, {"sequence": "TTATATTATGCTTGAATGCACTTTGAAGCACAATCT [GTGCAC_site9789]", "gcPBM binding intensity (ln)": 8.09}, {"sequence": "AATATATAATTTTATAGTACATAATAAAAGAACAGG [XGTACX_site724]", "gcPBM binding intensity (ln)": 6.85}, {"sequence": "TATTCAACATAATATGCACACAAAAATTATGGAACG [CACACA_site8660]", "gcPBM binding intensity (ln)": 9.99}, {"sequence": "ATCACATAAAATATGAATATATATTTTATATATATA [CACACA_negctrl_site340]", "gcPBM binding intensity (ln)": 7}, {"sequence": "TATTTTGTTCTTTCCACACACAAATACAGATATTGT [CACACA_site6097]", "gcPBM binding intensity (ln)": 7.03}, {"sequence": "TCTTATCCATATATTACACACTATAAATAGAAATTA [CACACA_site6274]", "gcPBM binding intensity (ln)": 6.74}, {"sequence": "ATTTGTATATATTAATGTACACACATGCGTATGTTC [XGTACX_site7579]", "gcPBM binding intensity (ln)": 6.85}, {"sequence": "TGGGTAAACAGACACACACACATATAGATTTATATA [CACACA_site7026]", "gcPBM binding intensity (ln)": 6.7}, {"sequence": "CTTCCAATAAAAAATGCACACATTGAAAATATTGAA [CACACA_site2688]", "gcPBM binding intensity (ln)": 8.88}, {"sequence": "AAATTATATGAACATTGTACTTTATATATGTAAGAA [XGTACX_site1611]", "gcPBM binding intensity (ln)": 6.62}, {"sequence": "ACACACATATATACATGTACATATATATATATATAT [XGTACX_site451]", "gcPBM binding intensity (ln)": 9.28}, {"sequence": "TTTTTTTTTTTTTTTATAGTACATTACCAAAAAAAA [CACACA_negctrl_site1197]", "gcPBM binding intensity (ln)": 6.48}, {"sequence": "TTAAAATAAAGAAAATGTACATAAATTAAAATAAAG [XGTACX_site2281]", "gcPBM binding intensity (ln)": 6.73}, {"sequence": "ATTTATTGACTATTTACACACATATTTATTATAATA [CACACA_site1624]", "gcPBM binding intensity (ln)": 7.16}, {"sequence": "TATAAATATAAATATACACACATATATTTATTTATA [CACACA_site6890]", "gcPBM binding intensity (ln)": 6.39}, {"sequence": "AACAGTAACATTGAATGTACTTAATTTTAAGAAAAT [XGTACX_site2971]", "gcPBM binding intensity (ln)": 6.21}, {"sequence": "ACACATAATATGTGTAGTACTTTTTCTTTAACATTA [XGTACX_site1436]", "gcPBM binding intensity (ln)": 6.3}, {"sequence": "ATATATATATATATATGTACTAAGAATTCTTTAAAA [XGTACX_site8476]", "gcPBM binding intensity (ln)": 9.48}, {"sequence": "ATTTATTTATTTATATGTACATATTTAAAGAGTTCA [XGTACX_site7631]", "gcPBM binding intensity (ln)": 6.48}, {"sequence": "TATATTTTGTTCTGTTGTACTAAAAAAATCTTTATA [XGTACX_site8372]", "gcPBM binding intensity (ln)": 6.32}, {"sequence": "TTACTTTTAACAAATGTGCGCAGTTATCACACAGAC", "gcPBM binding intensity (ln)": 7.23}, {"sequence": "ACAAAACAAAAAAACTCACACATATACGGCATGTCA [CACACA_site5608]", "gcPBM binding intensity (ln)": 6.61}, {"sequence": "ATACATATTTTACATTCACACAACAAATTTATATTT [CACACA_site4700]", "gcPBM binding intensity (ln)": 7.05}, {"sequence": "AGGAACAAAATATACTGTACTTTATTATTTTCAAAA [XGTACX_site4421]", "gcPBM binding intensity (ln)": 6.24}, {"sequence": "AACAGACAGAAACACACACACATATATATATATATA [CACACA_site3394]", "gcPBM binding intensity (ln)": 9.31}, {"sequence": "TGTAGTCTGGAGAAAAGTACATAGTATCTGGTAACC [XGTACX_site2025]", "gcPBM binding intensity (ln)": 6.29}, {"sequence": "TAATAAAATATGTACACACATACACCCATATATATA [CACACA_site1220]", "gcPBM binding intensity (ln)": 6.7}, {"sequence": "ATTTTCCAAAATAATTGTACAGGAAAGAAATAATTA [XGTACX_site7424]", "gcPBM binding intensity (ln)": 6.54}, {"sequence": "ATATATTTTAATTGATGTACTTTTTTATGTTAATGA [XGTACX_site4316]", "gcPBM binding intensity (ln)": 6.32}, {"sequence": "ATTATACATATATAAGTGCAATAATGTTTTTTCCTT", "gcPBM binding intensity (ln)": 8.87}, {"sequence": "TATACATATGAAAATACACACATACATACATATATA [CACACA_site8484]", "gcPBM binding intensity (ln)": 6.61}]}]}
